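These data come from cells grown in 96-well plates and exposed to compound for 48 hours at five concentrations. Here, GI50 denotes the concentration required for 50% inhibition of growth. TGI denotes the concentration required for complete inhibition of growth.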

What is called GI50 is the concentration giving 50% growth inhibition. One may read the TGI as the concentration giving total growth inhibition.

This assay relates to NCI-H322M lung. As to the kind of experiment: DTP human tumour cell line panel, 48 h.
For `Nc1c2c(c(O)c3c1=C(CO)C=N3)=NCCS2=O` (configuration not stated), the GI50 was 0.44 µM and the TGI was 1.6 µM.
In the case of `COc1cc(CNC(=O)CCCCCCCCCCSC#N)ccc1O`, the total growth inhibition concentration (TGI) was 30.8 µM. This counts as double-digit micromolar.
`CCn1cc(C(=O)O)c(=O)c2cc(F)c(N3CCNCC3)nc21` showed a TGI above 100 µM.
The same measure, in the same setting: in the case of `Oc1ccccc1/C=N/N1C(=S)N(c2ccccc2)C(=Nc2ccccc2)C1=Nc1ccccc1` it was 37 µM; in that of `NCCCSCC(=O)O`, above 100 µM.
For the molecule `Cn1c(=O)ccc2cc(C(=O)c3ccccc3)ccc21`, the concentration for total growth inhibition (TGI) was above 100 µM.
On the same count and under the same terms, in the case of `COc1ccccc1N1C(=O)/C(=C\c2ccccc2)SC1c1cc(OC)c(OC)c(OC)c1` (configuration not stated) it was above 100 µM.
On the same count and under the same terms, in the case of `C=C(C)[C@H]1C=C[C@@H](OC(C)=O)[C@@]2(COC(C)=O)[C@H](OC(=O)CCC)[C@H]3[C@@H](OC(C)=O)[C@@H](C)C[C@]3(O)C(=O)[C@@](C)(OC(C)=O)[C@H]12` it was above 100 µM.
Consider `CSc1nnc2n1-c1ccccc1SCC2`, for which the TGI was above 100 µM.
As for `C/C(=N\Nc1nc2ccccc2[nH]1)c1ccc2ccccc2n1`, the concentration for total growth inhibition (TGI) worked out at 14.1 µM. This counts as double-digit micromolar.
On the same count and under the same terms, in the case of `CN(C)CCNc1nc2c(c(=O)n(C)c(=O)n2C)n1C` it was above 100 µM.
Molecule `CC(=O)c1ccc(-c2ccc(C(C)=O)s2)s1` returned a TGI above 100 µM.
For `COc1ccc2c(c1)cn1c3ccc(OC)cc3[nH]c(=O)c21`, the GI50 was 0.513 µM and the TGI was 2.39 µM.
With `Cn1c(=O)c2nc3sc4ccccc4c(=N)n3c2n(C)c1=O`, the TGI was above 100 µM.
Molecule `O=c1cc(/C=C/c2ccccc2)c2ccc(O/C(=C\c3ccccc3)c3nc4ccccc4c(=O)o3)cc2o1` had a TGI above 100 µM.
On the same count and under the same terms, next, `CCOC(=O)CCNC(=O)c1cc(C)cc2c1Oc1c(cc(C)cc1C(=O)NCCC(=O)OCC)S2`: above 100 µM.
Take `c1ccc(Oc2cnc3ccccc3n2)cc1`: the GI50 was above 100 µM and the TGI is above 100 µM.
On to `OC(c1cc2c(Cl)cc(Cl)cc2c2cc(C(F)(F)F)ccc12)C1CCCCN1` (configuration not stated), for which the GI50 is 1.58 µM and the TGI is 3.13 µM.
In the same order, the values of `COc1cc(Nc2nccc(-c3cnn4ncccc34)n2)cc(OC)c1` are 0.0629 µM and 2.84 µM.
`C=CCOC1=C(OC(C)=O)C(C2COC(C)(C)O2)OC1=O` (configuration not stated) gave a TGI above 100 µM.
Same read-out and setting: in the case of `CCN(CC)C(=O)CCNC(C)Cc1c[nH]c2ccccc12` (configuration not stated) it was above 100 µM; in that of `CCOc1ccnc2c(OC)c(C)c3nc4ccccc4nc3c12`, above 100 µM.
With `CC1(C)CC(=O)C(/C=N/c2nc(-c3cccc([N+](=O)[O-])c3)cs2)=C(O)C1`, the TGI is above 100 µM.
For the molecule `COc1ccc(-n2cc(-c3ccc(F)cc3)[nH]c2=O)cc1OC`, the GI50 is above 100 µM and the TGI is above 100 µM.
`O=[N+]([O-])c1cnccc1-n1nnc2ccccc21`: the TGI was above 70.4 µM.
The same measure, in the same setting: next, `N#C[C@H](c1nc2ccccc2[nH]1)c1nc2ccccc2nc1Cl`: 10.9 µM; `OCC1C2C=CC(O2)[C@H]1CO` (some centres not stated): above 100 µM; `C[C@]12CC[C@H](O)CC1CCC[C@@H]2O` (some centres not stated): above 100 µM.
Still for that read-out and setting: next, `O=P1(NCCCl)OCCC(OO)N1CCCl` (configuration not stated): above 100 µM.
As to `COc1cccc(-c2nn(C)c3sc(C(=O)NCCN4CCN(c5ccccc5F)CC4)cc23)c1`, the GI50 is 39.2 µM and the TGI is above 100 µM.
`C=C1[C@@H]2CCC(C)(C)[C@H]1CCC(=O)[C@@H]2C(=O)OC` came in with a total growth inhibition concentration (TGI) above 100 µM.
Consider `C=C(C=O)[C@@H]1CC=C(C=O)CC1`, for which the GI50 is 21.9 µM and the TGI worked out at 54.9 µM.
In the same order, the values of `O=[N+]([O-])c1ccc(N/N=C\c2ccc(O)cc2O)nc1` are 0.79 µM and above 100 µM.
The matching figures for `O=c1c(Br)ccc(Br)cc1Br`: 12.4 µM and 26.3 µM.
In turn, `c1ccc2c(c1)-c1nc3ccccc3cc1C2N1CCOCC1` (configuration not stated) showed a TGI above 100 µM.
Turning to `CN(Cc1cccc(Cl)c1)c1ccc(CO)c(Cl)c1`, the GI50 is 13.9 µM and the TGI turned out to be 51.1 µM.

(Values after PubChem BioAssay (NCI).)
